Assay results published in US20220220215A1 (CRESCENDO BIOLOGICS, published 2022).

Target: human CD137 expressed on cells (Jurkat human CD137 NF-kB luciferase reporter cells; human CD8+ T cells) (human, UniProt Q07011 24-255)
Test: cell-based or functional assay

| Binder | Jurkat-CD137/CHO-PSMA Reporter Assay EC50 |
| --- | --- |
| TPP-800 PSMA-6GS-CD137-6GS-HSA (bispecific antibody) EVQLLESGGGLVQPGGSLRLSCAASGFSFSSYALSWVRQAPGKGLEWVSSIGENDGTTDYAD[about 20 residues not written out]MNSLRVEDTAVYYCVKDGVHWGQGTLVTVSSGGGGSGGGGSGGGGSGGGGSGGGGSGGGGSEVQLVESGGGVVQPGGSLRLSCAASGFTFSNYGMHWVRQAPGKGLEWVAVISNDGNTKTYADSVKGRFTISRDNSKNTLYLQMNSLRAEDTAVYYCAQDETTTVTASYYFDYWGQGTLVTVSSGGGGSGGGGSGGGGSGGGGSGGGGSGGGGSEVQLVESGGGLVQPGRSLRLSCAASGFTFHHYAMHWVRQAPGKGLEWVSGISWNGNKITYADSVKGRFTISRDNAKNSLYLQMNSLRAEDTALYYCVRDSSLFIVGAPTFEHWGRGTLVTVSS | 8.5 nM |
| TPP-802 PSMA-6GS-CD137-6GS-HSA (bispecific antibody) EVQLLESGGGLVQPGGSLRLSCAASGFSFSSYALSWVRQAPGKGLEWVSSIGENDGTTDYAD[about 20 residues not written out]MNSLRVEDTAVYYCVKDGVHWGQGTLVTVSSGGGGSGGGGSGGGGSGGGGSGGGGSGGGGSEVQLVESGGGVVQPGGSLRLSCAASGFTFSNYGMHWVRQAPGKGLEWVAVISNDGNTKTYADSVKGRFTISRDNSKNTLYLQMNSLRAEDTAVYYCAQDETTTVTASYYFDYWGQGTLVTVSSGGGGSGGGGSGGGGSGGGGSGGGGSGGGGSEVQLVESGGGLVKPGGSLRLSCAASGFTFSNYNMNWVRQAPGKGLEWVSSISSAGTHIYYADSVKGRFTISRDNAKNSLYLQMNSLRAEDTAVYYCARDPHSTGWYKDFDYWGQGTLVTVSS | 2 nM |
